# The other results are listed elsewhere or left out. One pool of 16,384 single-stranded DNAs met each Rep nickase domain in vitro (1 h at 37 °C, 3 µM enzyme); the outer parts of the 90-letter strands are left off. The score is log2 (uncut reads / reads without enzyme); uncut sequences lie near 0, cut ones below; no hit call is given. The scaling is to total reads; where an enzyme cuts many sequences, the uncut ones exceed 0.
# Test system: T1, Rep nickase domain of tomato golden mosaic virus
# T1 sequence (protein, residues 1-124, tag omitted): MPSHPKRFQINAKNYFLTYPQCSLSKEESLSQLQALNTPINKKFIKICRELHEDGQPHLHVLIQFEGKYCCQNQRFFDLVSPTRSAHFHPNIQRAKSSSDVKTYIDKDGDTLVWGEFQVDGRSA
# Experiment: uncleaved DNA left, log2 of reads against the no-enzyme library (log2 ratio); higher = less cleavage (more negative = more Rep cleavage of the k-mer); sequences stand for … in CTCGTCCG…ACCGGAGA
# Description: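 A pool of 90-nt single-stranded DNAs with seven random bases just before the constant AC of the nick site (name = the seven bases) was cut by 3 µM recombinant His6-SUMO-tagged Rep nickase domain (300 nM DNA, 50 mM HEPES pH 8.0, 50 mM NaCl, 1 mM MnCl2, 1 h, 37 °C, three replicates). Uncut DNA was amplified and sequenced.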
row,Sequence,uncleaved DNA left (log2)
1,ATGATGG,0.0476
2,GGCGTCT,0.0679
3,CCTAGAG,0.0791
4,CGTGTGA,-0.221
5,TTTCGCA,-0.194
6,ATCTAGC,-0.0237
7,GACGGGC,0.0998
8,ACCTACG,-0.0832
9,ACTACAA,-0.101
10,CCCAGGA,-0.0484
11,GCACCCG,-0.0447
12,GTGTAGA,0.218
13,TTATACA,-0.0212
14,AATAGTA,-0.0327
15,ACACCCA,-0.0145
16,AACTCAG,0.0259
17,CGCGGTG,-0.0796
18,CTCTAGG,0.0787
19,AATGTCC,0.0566
20,TGGAACT,0.0104

row,Sequence,uncleaved DNA left (log2)
1,TTGCGAC,-0.0488
2,TTGTTCT,-0.14
3,AAGCATA,0.0311
4,ACGTGTC,-0.0813
5,TGACGGA,-0.0373
6,GTCTCAA,0.216
7,AAAGGAC,0.0978
8,TTGTCCT,-0.207
9,TTTCCTT,-0.123
10,ATTACCT,-0.00324
11,CTTTTAA,0.0608
12,CCTGGTA,-0.0156
13,ACCAACG,-0.0622
14,TGGTCCA,-0.109
15,GGAGGCT,0.162
16,GATATGT,0.186
17,TCCTGAC,-0.0683
18,AGGACTT,0.0148
19,CGCTTCT,-0.0482
20,AACTGAC,-0.00121

# — the supplement of paper PMC7826260
